Assay results: PubChem BioAssay AID1347428 (National Center for Advancing Translational Sciences (NCATS), 2020)
Among all 91,000 compounds or so, about 290 (0.32%) were called active. The shares of active, inactive and inconclusive entries below differ from those in the screen. The call rests on the fitted dose curve; in most records, active means well fitted inhibition curve with a large enough effect; inconclusive means small, poorly fitted or top-dose-only effect; inactive means no such curve, though single readings can be large or run the other way. Potencies beside an inconclusive call are fits to weak or partial responses and may not hold up.

The compounds below were run against Single-stranded DNA cytosine deaminase (Homo sapiens) (UniProt Q9GZX7) (assay: Primary qHTS assay for inhibitors of Activation Induced Cytidine Deaminase (AID): AID signal). Conditions: AID deamination FRET fluorescence, UDG-coupled, 4 h; activity change, negative = inhibition: at 115 µM (top of the series).
Further: nearly all actives have a fitted effect of over 25% in size.
On the % scale 0 is the no-effect control and ±100 the full control effect; potency means the concentration at half of the fitted maximal effect; tags describe the fitted curve by direction and shape.

Chain of UniProt Q9GZX7 (Q9GZX7 whole entry, looked up): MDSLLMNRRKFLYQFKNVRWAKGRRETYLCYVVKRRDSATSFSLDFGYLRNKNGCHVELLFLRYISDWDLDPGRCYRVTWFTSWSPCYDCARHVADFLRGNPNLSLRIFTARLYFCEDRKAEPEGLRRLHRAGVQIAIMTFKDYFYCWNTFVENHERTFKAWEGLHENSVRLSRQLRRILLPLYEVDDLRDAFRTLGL

Row | Compound | Potency | activity change, negative = inhibition
1 | Cc1ccc(C)c(CN2CCC(CNC(=O)Nc3ccc(Br)cc3F)CC2)c1 | inconclusive: 7.08 µM [inhibitor, full curve, poor fit] | 
2 | Cc1ccc(NC(=O)Cn2nc(-c3ccncc3)ccc2=O)cc1Cl | inconclusive: 25.1 µM [inhibitor, full curve, poor fit] | 
3 | COc1ccc(-c2c3c(=O)n(C)c(=O)n(C)c3c3c(-c4cccc(C)c4)nc4ccccc4n23)cc1 | inconclusive: 35.5 µM [inhibitor, single point] | 
4 | Cc1ccc(CN(C(=O)COc2ccc(Cl)c(C)c2)C2CCS(=O)(=O)C2)o1 (centres undefined) | inconclusive: 56.2 µM [inhibitor, partial curve, poor fit] | 
5 | C=CCC(CC=C)(CNC(=O)C(=O)Nc1cc(C)ccc1OC)c1ccc(OC)c(OC)c1 | inconclusive: 25.1 µM [inhibitor, full curve, poor fit] | 
6 | Cc1ccccc1N1CCN(C(=O)c2cc3ccccc3[nH]2)CC1 |  | inactive: -11%
7 | O=C(CCc1nc(-c2ccccc2)c(-c2ccccc2)o1)N1CCN(C(=O)C2CC2)CC1 | inconclusive: 35.5 µM [inhibitor, partial curve, poor fit] | 
8 | O=C(CSc1nnc(-c2ccccc2)n1-c1ccc(Cl)cc1)Nc1ccc2cn[nH]c2c1 |  | inactive: 3.33%
9 | O=c1c2cn[nH]c2nc(SCc2cccc(Br)c2)n1-c1ccc(Cl)cc1 | inconclusive: 25.1 µM [inhibitor, full curve, poor fit] | 
10 | Cc1nc(Nc2ccc(Cl)cc2)cc(-c2ccccc2)n1 | inconclusive: 28.2 µM [inhibitor, partial curve, poor fit] | 
11 | COc1ccc(C2CC(=O)N(Cc3ccc(F)cc3)c3ccccc3S2)cc1 (centres undefined) | inconclusive: 39.8 µM [inhibitor, partial curve, poor fit] | 
12 | CCN1CCN(c2oc(-c3ccc(COc4ccc(C)cc4)o3)nc2C#N)CC1 | inconclusive: 79.4 µM [inhibitor, partial curve, poor fit] | 
13 | CC(C)(C)c1nc2cc(NC(=O)Cc3ccc([N+](=O)[O-])cc3)ccc2o1 |  | inactive: 6.75%
14 | COc1cccc2sc(N(Cc3cccnc3)C(=O)Cc3ccccc3)nc12 | inconclusive: 79.4 µM [inhibitor, partial curve, poor fit] | 
15 | COC(=O)c1cnn(-c2ncnc3sc4c(c23)CCCC4)c1N |  | inactive: -4.47%
16 | COc1cccc(NC(=O)CSc2nc(=O)n(Cc3ccco3)c3c2CCC3)c1 | inconclusive: 56.2 µM [inhibitor, partial curve, poor fit] | 
17 | Cc1sc2ncn(CC(=O)N3CCN(c4ccc(F)cc4)CC3)c(=O)c2c1S(=O)(=O)N1CCCCC1 | inconclusive: 89.1 µM [inhibitor, single point] | 
18 | Cc1c(C(=O)Nc2ccc(C(C)C)cc2)sc2nc3n(c(=O)c12)CCC3 | inconclusive: 17.8 µM [inhibitor, full curve, poor fit] | 
19 | Cc1ccc(C)c(CN2C(=O)c3ccccc3S(=O)(=O)c3ccc(C(=O)NCCCN4CCCC(C)C4)cc32)c1 (centres undefined) | inconclusive: 39.8 µM [inhibitor, partial curve] | 
20 | CC(=O)c1ccc(/C=C/C(=O)O)o1 |  | inactive: -0.793%

Row | Compound | Potency | activity change, negative = inhibition
21 | Cc1nn(-c2ncccn2)c2c1C(c1ccccc1OCCc1ccccc1)CC(=O)N2 (centres undefined) | inconclusive: 89.1 µM [inhibitor, partial curve, poor fit] | 
22 | COc1cc(OC)c(NC(=O)N2CC3CCCN3c3ccccc32)cc1Cl (centres undefined) | inconclusive: 31.6 µM [inhibitor, partial curve] | 
23 | CC(C)c1ccc(NC(=O)C(C)N(c2ccccc2)S(C)(=O)=O)cc1 (centres undefined) | inconclusive: 79.4 µM [inhibitor, single point] | 
24 | Cc1cccc(OCC(=O)N(Cc2ccc(C(C)(C)C)cc2)Cc2ccco2)c1 | inconclusive: 35.5 µM [inhibitor, full curve] | 
25 | O=c1[nH]c(=O)n(C2CCCCC2)c(O)c1C1=Nc2ccccc2SC(c2ccccc2)C1 (centres undefined) | inconclusive: 89.1 µM [inhibitor, single point] | 
26 | Oc1ccc(C2(c3ccccc3)C=Cc3c(ccc4ccccc34)O2)cc1 (centres undefined) |  | inactive: -1.48%
27 | O=C(O)C/C(=C/c1cccc(Br)c1)c1nc2ccccc2s1 |  | inactive: -15.8%
28 | CCOC(=O)c1ccc(NC(=O)CSc2c3c(nc4cc(Cl)ccc24)CCCC3)cc1 | inconclusive: 0.501 µM [inhibitor, full curve] | 
29 | COc1cccc(Cn2nnc3c(=O)[nH]c(C4CCN(C(=O)c5ccccc5Cl)CC4)nc32)c1 | inconclusive: 50.1 µM [inhibitor, partial curve, poor fit] | 
30 | Cc1ccc(N2CCN(C(=O)c3cnc(N4CCCCC4)c4ccccc34)CC2)c(C)c1 | inconclusive: 22.4 µM [inhibitor, full curve, poor fit] | 
31 | O=C(NCCc1ccccc1Cl)c1sc2ncccc2c1-n1cccc1 | active: 35.5 µM | 
32 | N#Cc1cccc(COC(=O)c2c[nH]c3ccccc23)c1 |  | inactive: 5.04%
33 | COCCNc1oc(-c2ccccc2)nc1S(=O)(=O)c1ccc(Br)cc1 | inconclusive: 25.1 µM [inhibitor, full curve] | 
34 | CCOC(=O)c1ccc(N2C(=O)c3n[nH]c(-c4ccco4)c3C2c2ccc(C)cc2)cc1 (centres undefined) | inconclusive: 79.4 µM [inhibitor, partial curve] | 
35 | COc1ccc(C(=O)Nc2ccc3oc(-c4ccncc4)nc3c2)cc1Br | inconclusive: 50.1 µM [inhibitor, partial curve, poor fit] | 
36 | Cc1ccc(CCNC(=O)c2ccc3c(Cl)c4c(nc3c2)CCCC4)cc1 | inconclusive: 56.2 µM [inhibitor, partial curve, poor fit] | 
37 | CN(C)CCNc1ncnc2c1cnn2-c1cccc(Cl)c1 | inconclusive: 44.7 µM [inhibitor, partial curve, poor fit] | 
38 | O=C(CSc1nc2c(oc3ccccc32)c(=O)n1-c1ccccc1)Nc1ccccc1F | inconclusive: 22.4 µM [inhibitor, single point] | 
39 | COc1ccc(OC)c(CN(Cc2ccc(C#N)cc2)C2CC2)c1 |  | inactive: -8.16%
